These are yes or no findings as the source states them, for the method shown. In cells and extracts the contact can be indirect. Some entries that bind do so weakly or less than the wild type. For part of these data: Tags and fused reporters may be left off the sequences shown.
Legend:
Experiment in all cases: pull-down; GST fusion proteins on GSH-sepharose beads incubated with pre-cleared rat brain synaptosomal lysate (20 mM Tris pH 7.4, 150 mM NaCl, 1% Triton X-100, 1 mM EDTA, 1 mM EGTA) at 4 °C for 1 h; bound proteins by Coomassie stain or Western blot (some blots quantified by densitometry); only the target purified
[1] = biological target: GST-Dyn1xA-PRR (dynamin 1xA proline-rich region, amino acids 746-864) (rat) (UniProt P21575)
[2] = biological target: T1, GST-Dyn1xA-PRR 794-864 (rat) (UniProt P21575)
T1 sequence: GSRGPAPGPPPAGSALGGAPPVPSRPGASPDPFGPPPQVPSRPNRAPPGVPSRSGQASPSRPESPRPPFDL

[3] = biological target: T2, GST-Dyn1xA-PRR 806-864 (rat) (UniProt P21575)
T2 sequence: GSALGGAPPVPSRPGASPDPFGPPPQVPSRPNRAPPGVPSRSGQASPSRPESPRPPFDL

[4] = biological target: T3, GST-dyn1xA-PRR 806-864 P813/816A (rat) (UniProt P21575)
T3 sequence: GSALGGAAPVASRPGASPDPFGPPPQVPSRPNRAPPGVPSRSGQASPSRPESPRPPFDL

[5] = biological target: T4, GST-dyn1xA-PRR 806-864 P816/819A (rat) (UniProt P21575)
T4 sequence: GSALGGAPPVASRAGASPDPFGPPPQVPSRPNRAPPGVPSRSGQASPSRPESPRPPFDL

[6] = biological target: T5, GST-dyn1xA-PRR 806-864 P833/836A (rat) (UniProt P21575)
T5 sequence: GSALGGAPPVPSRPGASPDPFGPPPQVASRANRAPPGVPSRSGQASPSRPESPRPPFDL

[7] = biological target: T6, GST-dyn1xA-PRR 806-864 R838A (rat) (UniProt P21575)
T6 sequence: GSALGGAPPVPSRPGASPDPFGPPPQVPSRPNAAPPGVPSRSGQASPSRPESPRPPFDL

[8] = biological target: T7, GST-dyn1xA-PRR P813/816A (rat) (UniProt P21575)
T7 sequence: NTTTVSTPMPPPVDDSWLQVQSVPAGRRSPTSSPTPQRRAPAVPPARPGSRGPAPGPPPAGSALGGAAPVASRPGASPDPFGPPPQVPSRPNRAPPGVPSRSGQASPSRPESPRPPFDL

[9] = biological target: T8, GST-dyn1xA-PRR P816/819A (rat) (UniProt P21575)
T8 sequence: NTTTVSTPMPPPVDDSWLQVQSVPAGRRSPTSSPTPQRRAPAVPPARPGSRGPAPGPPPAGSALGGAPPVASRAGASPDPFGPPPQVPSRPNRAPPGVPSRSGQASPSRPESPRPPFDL

[10] = biological target: T9, GST-dyn1xA-PRR P830/833A (rat) (UniProt P21575)
T9 sequence: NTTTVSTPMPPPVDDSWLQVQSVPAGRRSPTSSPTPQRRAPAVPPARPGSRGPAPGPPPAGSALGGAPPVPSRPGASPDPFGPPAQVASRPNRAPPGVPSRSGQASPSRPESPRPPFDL

[11] = biological target: T10, GST-dyn1xA-PRR P833/836A (rat) (UniProt P21575)
T10 sequence: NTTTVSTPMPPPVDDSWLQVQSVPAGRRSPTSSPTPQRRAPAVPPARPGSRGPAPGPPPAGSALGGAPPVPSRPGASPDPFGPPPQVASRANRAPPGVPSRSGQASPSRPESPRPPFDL

[12] = biological target: T11, GST-dyn1xA-PRR P844A (rat) (UniProt P21575)
T11 sequence: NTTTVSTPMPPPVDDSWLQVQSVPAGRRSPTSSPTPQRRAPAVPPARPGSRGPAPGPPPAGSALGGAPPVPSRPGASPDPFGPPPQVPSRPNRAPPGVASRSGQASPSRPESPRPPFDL

[13] = biological target: T12, GST-dyn1xA-PRR R846A (rat) (UniProt P21575)
T12 sequence: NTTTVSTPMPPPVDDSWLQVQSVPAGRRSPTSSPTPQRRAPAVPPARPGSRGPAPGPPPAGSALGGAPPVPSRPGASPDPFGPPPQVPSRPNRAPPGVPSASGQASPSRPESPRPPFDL

[14] = biological target: T13, GST-dyn1xA-PRR S774/778E (rat) (UniProt P21575)
T13 sequence: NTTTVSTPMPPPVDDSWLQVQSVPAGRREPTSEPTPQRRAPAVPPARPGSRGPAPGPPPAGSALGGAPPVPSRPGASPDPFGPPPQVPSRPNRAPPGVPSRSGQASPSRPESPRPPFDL

[15] = biological target: T14, GST-dyn1xA-PRR S851/857E (rat) (UniProt P21575)
T14 sequence: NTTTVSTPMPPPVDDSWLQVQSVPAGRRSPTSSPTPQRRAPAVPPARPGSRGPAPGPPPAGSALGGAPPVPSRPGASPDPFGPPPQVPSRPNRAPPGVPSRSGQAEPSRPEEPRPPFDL

binding [1]: binds
binding [2]: binds
binding [3]: binds
binding [4]: binds
binding [5]: binds
binding [6]: no binding
binding [7]: binds weakly
binding [8]: binds
binding [9]: binds
binding [10]: no binding
binding [11]: no binding
binding [12]: binds
binding [13]: binds
binding [14]: binds
binding [15]: binds
B1: Amphiphysin 1 (protein, UniProt O08838 1-683)
chain: MADIKTGIFAKNVQKRLNRAQEKVLQKLGKADETKDEQFEEYVQNFKRQEAEGTRLQRELRGYLAAIKGMQEASMKLTESLHEVYEPDWYGREDVKMVGEKCDVLWEDFHQKLVDGSLLTLDTYLGQFPDIKNRIAKRSRKLVDYDSARHHLEALQSSKRKDESRISKAEEEFQKAQKVFEEFNVDLQEELPSLWSRRVGFYVNTFKNVSSLEAKFHKEIAVLCHKLYEVMTKLGDQHADKAFSIQGAPSDSGPLRIAKTPSPPEEASPLPSPTASPNHTLAPASPAPVRPRSPSQTRKGPPVPPLPKVTPTKELQQENIINFFEDNFVPEINVTTPSQNEVLEVKKEETLLDLDFDPFKPDVTPAGSAAATHSPMSQTLPWDLWTTSTDLVQPASGGSFNDFTQPQDTSLFTMQTDQNMAETEQALPTEPQAEEPPTTAAAPTAGLDLGLEMEEPKEEAAIPPGTDAGETVGTEGSTGEEAEAEKAALPAGEGESPEGAKIDVESTELASSESPQAAELEAGAPQEKVIPSVVIEPASNHEGEEHQETTTGTETREATEDVAPQGPAGEKQELATEPTPLDSQAATPAPAGAVDASLSAGDAAQELPPGFLYKVETLHDFEAANSDELTLQRGDVVLVVPSDSEADQDAGWLVGVKESDWLQYRDLATYKGLFPENFTRHLE
